# Measured values published in paper PMC4336329 (PLoS ONE, 2015).
# In all, about 310,000 compounds went through this assay and about 14,000 (4.5%) showed an effect of 50% or more. Effects have a minus sign here. Some of the results follow.
# Target: human ether-à-go-go-related gene (hERG) potassium channel (human, UniProt Q12809)
# Test: primary screen, population patch clamp on CHO cells stably expressing hERG
# 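Also: peak tail current of the secondary pulse compared with the same well before compound.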
# human ether-à-go-go-related gene (hERG) potassium channel, sequence (Q12809 whole entry, looked up): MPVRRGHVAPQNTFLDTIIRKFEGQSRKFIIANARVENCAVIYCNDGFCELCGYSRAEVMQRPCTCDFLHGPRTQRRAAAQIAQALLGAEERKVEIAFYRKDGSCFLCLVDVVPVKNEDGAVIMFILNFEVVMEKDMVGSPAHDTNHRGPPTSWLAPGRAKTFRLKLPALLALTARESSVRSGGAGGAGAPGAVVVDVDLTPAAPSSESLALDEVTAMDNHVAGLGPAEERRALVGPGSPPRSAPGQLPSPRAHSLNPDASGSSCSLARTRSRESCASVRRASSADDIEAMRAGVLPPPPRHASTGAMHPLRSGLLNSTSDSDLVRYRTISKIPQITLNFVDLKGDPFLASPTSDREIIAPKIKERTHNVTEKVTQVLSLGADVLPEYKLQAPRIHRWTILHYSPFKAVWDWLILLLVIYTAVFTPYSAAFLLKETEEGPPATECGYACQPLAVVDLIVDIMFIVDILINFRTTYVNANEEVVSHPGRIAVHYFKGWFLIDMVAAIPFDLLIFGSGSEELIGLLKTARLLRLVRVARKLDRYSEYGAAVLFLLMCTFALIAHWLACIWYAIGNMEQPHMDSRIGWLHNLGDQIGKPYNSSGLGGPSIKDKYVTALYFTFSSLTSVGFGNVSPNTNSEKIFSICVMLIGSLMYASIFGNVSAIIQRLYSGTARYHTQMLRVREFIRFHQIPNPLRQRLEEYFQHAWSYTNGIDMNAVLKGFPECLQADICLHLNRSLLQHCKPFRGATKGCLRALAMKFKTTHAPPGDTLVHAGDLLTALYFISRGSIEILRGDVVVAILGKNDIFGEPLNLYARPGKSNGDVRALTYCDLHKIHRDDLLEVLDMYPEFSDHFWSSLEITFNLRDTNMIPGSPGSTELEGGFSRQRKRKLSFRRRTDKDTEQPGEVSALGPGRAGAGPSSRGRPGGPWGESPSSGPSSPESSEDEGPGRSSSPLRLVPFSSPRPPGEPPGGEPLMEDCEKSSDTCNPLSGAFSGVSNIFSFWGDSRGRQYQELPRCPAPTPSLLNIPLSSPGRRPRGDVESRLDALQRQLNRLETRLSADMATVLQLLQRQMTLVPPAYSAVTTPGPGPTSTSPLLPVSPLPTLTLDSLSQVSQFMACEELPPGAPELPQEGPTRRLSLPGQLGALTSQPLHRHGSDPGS
row,SMILES,"hERG current change (%, negative = inhibition) at 10uM [%]"
1,CCCC(=O)Nc1nnc(SCC(=O)Nc2nc(C)cs2)s1,10.7
2,CCn1cc(C(=O)N2CCc3ccccc32)c(=O)c2cc(S(=O)(=O)N3CCCCCC3)ccc21,-67.1
3,COc1ccccc1NS(=O)(=O)c1cccc(C(=O)NCC(c2cccs2)N2CCOCC2)c1 (stereo not shown),-24.8
4,CCCC(c1nnnn1CCOC)N1CCN(C(=O)c2ccco2)CC1.Cl (stereo not shown),-4.1
5,C/C=C(/C)C(=O)O[C@@H]1[C@H](OC(C)=O)c2c(ccc3ccc(=O)oc23)OC1(C)C,-36
6,CCOC(=O)NC1(C(F)(F)F)NC(=O)N(Cc2ccco2)C1=O (stereo not shown),13
7,COc1ccc(C(C)=O)cc1CC(=O)Nc1cccc(S(=O)(=O)N2CCOCC2)c1,-30.3
8,CCOP(=O)(OCC)C(NC(=O)Nc1ccc(C)c(Cl)c1)c1ccccc1 (stereo not shown),2.29
9,CC[n+]1cc(C)ccc1/C=C/c1ccc(N(C)C)cc1.[I-],-14.6
10,C/C(=N/Nc1ncc(Br)cn1)c1ccc(Br)cc1,1.07
11,CCCc1c(C)nc2c(OC)cccc2c1SCC(=O)O,4.64
12,CN1CCN(CC(=O)Nc2ccccc2[N+](=O)[O-])CC1,-13.2
13,Cc1ccc(SCc2nc(N)nc(Nc3ccccc3C)n2)c(C)c1,15.2
14,Cc1noc(C(=O)NCc2cccnc2)c1Cl,11.2
15,Cc1ccc(S(=O)(=O)Nc2cc(-c3nn(C)c(=O)c4ccccc34)ccc2N2CCOCC2)cc1,-57
16,COc1ccc(C)cc1-n1c(C)cc(C=O)c1C,1.62
17,COc1ccc(NC(=O)c2cc(S(=O)(=O)N3CCCCC3)ccc2OC)cc1,-9.84
18,Cc1cccc(C)c1N1CCN(C(=O)c2ccc3c(c2)OCO3)CC1,-13
19,CCOC(=O)C1CCCN(c2c(N3CCOCC3)c(=O)c2=O)C1 (stereo not shown),-0.407
20,CC1CC(C)CN(CCCSc2ccccc2)C1.O=C(O)C(=O)O (stereo not shown),-64.3
21,Cc1cc(N(C)C)ccc1N=Nc1ccc(N)cc1,8.74
22,Cc1nc2ccccc2n1CC(=O)OCC(=O)Nc1ccc2c(c1)OCCO2,9.59
23,Cc1cccc(CNc2ccc(C(CC(N)=O)NC(=O)Cc3cccc4ccccc34)cc2[N+](=O)[O-])c1 (stereo not shown),7.02
24,CCOC(=O)CC1C(=O)NCCN1c1nc2ccc(C)cn2c(=O)c1/C=C1\SC(=S)N(CC(C)C)C1=O (stereo not shown),-0.649
25,COC(=O)c1cccc(NC(=O)CN2CCC(NC(=O)c3cc(OC)c(OC)c(OC)c3)CC2)c1,-14
26,COC(CNC(=O)Cc1c(C)nc2c(-c3ccccc3)c(C)nn2c1C)OC,9.32
27,Cc1nnc(SCC(=O)Nc2ccccc2N2CCOCC2)s1,-3.57
28,O=S(=O)(/C=C/c1ccccc1)c1ccccc1,-2.82

row,SMILES,"hERG current change (%, negative = inhibition) at 10uM [%]"
1,CSc1nsc(/C=C/Nc2ccc(C)cc2)c1C#N,5.14
2,COc1ccc(C(=O)NCc2ccc3c(c2)OCO3)cc1S(=O)(=O)N(C)Cc1ccccc1,-12.3
3,CCN(CC)C(=O)c1sc2c(c1C)c(=O)n(-c1ccc(C)c(C)c1)c(=O)n2CC(=O)NCC1CCCO1 (stereo not shown),10.7
4,CCCn1c(CCC(=O)O)nc2cc(S(N)(=O)=O)ccc21,14.7
5,CCN(CC(=O)Nc1c(F)cccc1F)C(=O)c1cccc(S(=O)(=O)N2CCCCCC2)c1,-7.77
6,NS(=O)(=O)c1ccc(CCNC(=O)C2CCCCC2)cc1,23.1
7,C=CCN1CCN(C(=O)CCc2ccccc2)CC1,13.8
8,CC(C)NC(=O)NC(=O)COc1ncnc2sccc12,0.886
9,COc1ccc(NC(=S)c2ccncc2)cc1,17.6
10,CC(C)(C)C1CCC(C(=O)Nc2ccccc2N2CCOCC2)CC1 (stereo not shown),-7.43
11,CCn1ncc([N+](=O)[O-])c1C(=O)Nc1ccc(C(=O)N2CCCCC2)cc1,-19.1
12,Cc1ccc(SCc2nc(-c3ccncc3)no2)cc1,-23.6
13,C=CCCC(=O)Nc1nc(C)c(-c2csc(Nc3cc(OC)ccc3OC)n2)s1,-1.58
14,Cc1cccc(C(=O)OCC(=O)c2c(N)n(CC(C)C)c(=O)n(C)c2=O)c1O,-15.2
15,CCc1ccc(-c2nc(SCC(=O)N(CCOC)c3c(N)n(Cc4ccccc4)c(=O)[nH]c3=O)n[nH]2)cc1,9.53
16,O=C(CCC(=O)N1CCN(c2ccc(F)cc2)CC1)c1ccc(Cl)cc1,-55.8
17,O=C(NCCc1ccc2c(c1)OCO2)C1CCN(S(=O)(=O)c2ccc(Cl)cc2)CC1,-14.7
18,COc1ccc(C(C(=O)NC2CCCC2)N(C(=O)c2ccoc2C)c2ccccc2)cc1 (stereo not shown),-3.9
19,N#Cc1c(-c2ccccc2)ccnc1N1CCOCC1,10.6
20,COCCn1c(C)cc(C(=O)CSc2ccc(NC(C)=O)cc2)c1C,12.4
21,CN(C)c1ccc(/C=C/C(=O)c2cccc(Br)c2)cc1,-9.25
22,CC(C)(O)C#Cc1ccc([C@@H]2C[C@H]3CN(c4ccccc4)C(=O)[C@]34CCCN24)s1,11.3
23,CCCc1cc(=O)[nH]c(SCC(=O)c2c(N)n(C3CC3)c(=O)[nH]c2=O)n1,6.85
24,CC(=O)c1ccc(OCC(O)CN2CCN(CCO)CC2)cc1.Cl (stereo not shown),9.1
25,Cc1ccc(/C=N/n2c(-c3ccccn3)n[nH]c2=S)o1,8.93
26,COc1ccc(N2CCN(C(=O)CSc3nnc4n3C(C)(C)Cc3ccccc3-4)CC2)cc1,-23.8
27,CCN(CC)S(=O)(=O)c1ccc(S(=O)(=O)Nc2cc3c(cc2C(C)=O)OCO3)cc1,2.49
